Experimental data published in PubChem BioAssay AID1346378 (National Center for Advancing Translational Sciences (NCATS), 2018).
“And” between values parts separate entries of the source, which are not always exact repeats. Identical values can stand only once. Screen size: about 420,000 compounds; about 540 (0.13%) were called active. This list was built around the results that the source calls inconclusive (neither active nor inactive); the mix of calls is not that of the screen. No stated cut-off is given here; in the data, active means activity change below about -50%; inconclusive means mostly about -30% to -49%; inactive means weaker than that.

Each compound was assayed against Phosphatidylinositol 4-kinase type 2-alpha (Homo sapiens) (UniProt Q9BTU6) (assay: qHTS for small molecular inhibitors of PI4K2A). Conditions: purified PI4K2A, ADP-Glo luminescence, 1 h; at 76.9 µM, active compounds read low.
Summary of the method: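 Compounds are screened against recombinant PI4K2A using PI as substrate and ATP, the latter dispensed at 300 microM. Reactions run one hour at ambient temperature before ADP-Glo detection; full inhibition defined by wells lacking enzyme.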
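Further: -100% = wells without enzyme as full effect.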

UniProt Q9BTU6, sequence (Q9BTU6 whole entry, looked up): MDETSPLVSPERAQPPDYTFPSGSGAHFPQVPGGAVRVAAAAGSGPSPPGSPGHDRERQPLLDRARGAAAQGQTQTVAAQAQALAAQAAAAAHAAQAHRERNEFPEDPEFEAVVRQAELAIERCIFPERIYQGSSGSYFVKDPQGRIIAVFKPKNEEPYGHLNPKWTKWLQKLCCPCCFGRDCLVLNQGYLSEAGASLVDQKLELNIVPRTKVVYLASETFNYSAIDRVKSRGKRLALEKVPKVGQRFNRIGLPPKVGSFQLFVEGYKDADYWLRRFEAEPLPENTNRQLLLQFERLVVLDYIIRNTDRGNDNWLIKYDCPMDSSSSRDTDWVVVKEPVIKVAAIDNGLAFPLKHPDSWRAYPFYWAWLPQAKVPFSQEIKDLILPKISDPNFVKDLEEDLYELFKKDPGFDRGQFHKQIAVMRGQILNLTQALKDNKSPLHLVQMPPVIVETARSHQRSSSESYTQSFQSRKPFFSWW

Activity change, negative = inhibition, inactive:
CCN(CC)CC#CCC(O)(c1ccccc1)C1CCCC1 (centres undefined) 3%
Cc1ccc(S(=O)(=O)N2c3ccccc3C[C@H]2CC=C(c2ccccc2)c2ccccc2)cc1 1.95%
Cc1cc(NC(=O)c2ccc(NS(=O)(=O)c3ccc(F)cc3)cc2)no1 3.35%
C[C@]12CC[C@@H]3c4ccc(O)cc4C[C@@H](CCCCCCCCCS(=O)CCCC(F)(F)C(F)(F)F)[C@H]3[C@@H]1CC[C@@H]2O (some centres undefined) -3.94% and -1.19%
COc1ccc(C(C)=O)cc1CSc1nnc(-c2ccc(Cl)cc2)n1-c1ccccc1 -6.28%
COc1ccccc1OCC(=O)NCCSCc1ccccc1Cl -5.51%
C#CCN(C[C@@H]1[C@@H](OC(=O)NCc2ccc(OC)c(OC)c2)[C@@H](OC(=O)NCc2ccc(OC)c(OC)c2)CN(C(=O)OC(C)C)N1C(=O)OC(C)C)S(=O)(=O)c1ccc(C)cc1 -5.59%
CC1CCCC(C)N1C(=O)COC(=O)/C=C/c1ccc(Br)o1 (centres undefined) -3.14%
COc1cc2c(cc1OC)-c1cc(NC3CCCCC3)nc(=O)n1CC2 -0.0655%
CNC[C@H](CC1CCCCC1)NC[C@H](CO)NCCc1cccc(C(F)(F)F)c1 3.95%
N#Cc1ccccc1Cn1cc(/C=N/Nc2ccc([N+](=O)[O-])cn2)c2ccccc21 -6.42%
Cc1cc2nc(CCN(C(=S)NCC3CCCO3)C3CCCC3)[nH]c2cc1C (centres undefined) 5.31%
Cc1cccc(NC(=O)CS(=O)(=O)c2c[nH]c3ccccc23)c1C 0.468%
CC(C)(CO)N=C1NS(=O)(=O)c2cc([N+](=O)[O-])ccc21 3.07%

Activity change, negative = inhibition, inconclusive:
CCn1c(C)cc(C(=O)COC(=O)c2ccccc2[N+](=O)[O-])c1C -34.9%
Cc1noc(/C=C/c2ccco2)c1S(=O)(=O)N1CCC(C(=O)NCc2ccco2)CC1 -37.7%
O=[N+]([O-])c1cc(Cc2ccccc2)cc(C=Nc2ccc(N3CCOCC3)cc2)c1O -36.4%
COc1ccc(Oc2nc(-c3ccccn3)nc3ccccc23)cc1 -30.7%
CCCCCN=Cc1c(C)[nH]n(-c2nc3ccccc3s2)c1=O -40.2%
CN(C)c1ccc(NC2=C(Cl)C(=O)c3ccccc3C2=O)cc1 -47.1%
Cc1coc2c1C(=O)C(=O)c1c-2ccc2c(C)cccc12 -40.8%
C(=C\c1ccc2ccccc2n1)/c1ccccc1 -34.4%
Clc1ccccc1Nc1nnc(-c2ccncc2)s1 -33.6%
CC1=C(C(=O)OCc2ccccc2)C(c2ccsc2)C(C#N)=C(N)O1 (centres undefined) -31.6%
CN(C)CCCNc1nc2cc(-c3cnn(Cc4ccccc4)c3)sc2c(=O)n1C -30.9%
CC1CCN(S(=O)(=O)c2ccc3c(c2)C(Cl)(Cl)C(=O)N3)CC1 -41%
COc1ccc2c(CC(=O)OCC(=O)Nc3cccc(C)c3)coc2c1 -44.5%
CC1(C)CC(=O)C(C(C2=C(O)CC(C)(C)CC2=O)c2ccc(Br)s2)C(=O)C1 (centres undefined) -36.7%
C=C(C)C(=O)Nc1cccc(C2=NOC3(C2)C[C@@H](C(N)=O)N(C(=O)/C=C/CC)C3)c1 (some centres undefined) -30.2%
Cc1cccc(N=C2NC(=O)/C(=C/C=C/c3ccco3)S2)c1 -31.6%
Nc1c(C(=O)NCc2ccco2)c2nc3ccccc3nc2n1CCc1ccc(F)cc1 -39.4%
COc1ccc(NC(=O)CSc2nnc(-c3ccco3)c(-c3ccco3)n2)cc1OC -31.7%
CCc1ccc(S(=O)(=O)Nc2cc(SCC(=O)O)c(O)c3ccccc23)cc1 -33.8%
Cc1no[n+]([O-])c1COc1cccc(/C=N/Nc2nncn2N)c1 -36%
O=C(/C=C/c1ccco1)Nc1cccc2cccnc12 -40.3%
CC(=O)Nc1ccc(C(=O)CSc2nnnn2C)cc1 -30%
CC1=NN(c2ccc([N+](=O)[O-])cc2)C(=O)/C1=C\N(C)C -38.1%
O=C(Nc1ccccc1)c1cccc(N2CCCC2=O)c1 -30.2%
CCCN(C(=O)Nc1cn(CC(C)C)c(=O)c2ccccc12)c1ccc(F)cc1 -39.9%
O=c1c2c(nc3cc(-c4ccccc4)[nH]n13)CCC2 -32.4%
CN(C)c1cccc2c1c(NS(=O)(=O)c1cn(C)cn1)nn2C -31.2%
CN(C)c1ccc(Nc2nc(N)c3ccccc3n2)cc1 -34.3%
Cc1nc(-c2ccc(NC(=O)c3cccs3)cc2)cs1 -44.4%

Activity change, negative = inhibition, active:
COc1ccc2c(c1)Cc1sc(NC(=O)c3cccc(C)c3)nc1-2 -54%
COc1ccc(/C=N/NC(=O)c2nn(-c3ccccc3)c(=O)c3c(N)scc23)cc1 -64.6%
CSc1nc(N(CCO)CCO)c2sc3nc(-c4ccco4)c4c(c3c2n1)CCC4 -56.3%
COc1ccc(-c2cc(=O)oc3cc(OCC(=O)N[C@@H](Cc4c[nH]c5ccccc45)C(=O)O)ccc23)cc1 -51.9%
Cc1ccc(C(=O)NCCSC(C)(C)C)cc1 -58.8%
O=C1N/C(=C\c2ccc(O)cc2)C(=O)c2ccccc21 -50.2%
COc1cc(Br)c(C(=O)c2nccc3cc(OC)c(OC)cc23)cc1OC -52.1%
COc1ccc(C(=O)c2cc3ccc(O)cc3oc2=O)cc1 -52.8%
COc1ccccc1-c1cc(C(=O)Nc2cc(C)on2)no1 -84.6%
Cc1nc(-c2ccc(C(=O)Nc3ccccc3F)cc2)cs1 -60.1%
OCC1O[C@H]([S-])[C@H](O)[C@@H](O)[C@@H]1O.[Au+] (some centres undefined) -55.1%
